From PubChem BioAssay AID1745853 (National Center for Advancing Translational Sciences (NCATS), 2022)
The other results are listed elsewhere or left out. Shown are side measurements of this screen, not its main read-out; they come without a call.

Legend:
Assay in all cases: Primary Screen for Target Class Profiling of Small Molecule Inhibitors of Methyltransferases
[1] = biological target: Glycine N-methyltransferase (Homo sapiens) (UniProt Q14749); settings: purified enzyme, MTase-Glo SAH luminescence; measured here: GNMT inhibition; at 40 µM; stronger effect = lower value
Method in brief: (§1)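 Each enzyme was assayed with SAM and its substrate. SAH formation detected by MTase-Glo luminescence; single-point 40 uM screen[…].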

[2] = biological target: Guanidinoacetate N-methyltransferase (Homo sapiens) (UniProt Q14353); settings: purified enzyme, MTase-Glo SAH luminescence; measured here: GAMT inhibition; at 40 µM; stronger effect = lower value
Method in brief: as §1

[3] = biological target: Histamine N-methyltransferase (Homo sapiens) (UniProt P50135); settings: purified enzyme, MTase-Glo SAH luminescence; measured here: HNMT inhibition; at 40 µM; stronger effect = lower value
Method in brief: as §1

[4] = biological target: Nicotinamide N-methyltransferase (Homo sapiens) (UniProt P40261); settings: purified enzyme, MTase-Glo SAH luminescence; measured here: NNMT inhibition; at 40 µM; stronger effect = lower value
Method in brief: as §1

[5] = biological target: Phenylethanolamine N-methyltransferase (Homo sapiens) (UniProt P11086); settings: purified enzyme, MTase-Glo SAH luminescence; measured here: PNMT inhibition; at 40 µM; stronger effect = lower value
Method in brief: as §1
% is scaled to controls: 0 for no effect and ±100 for the full control effect.

| SMILES | activity change, negative = inhibition [1] [%] | activity change, negative = inhibition [2] [%] | activity change, negative = inhibition [3] [%] | activity change, negative = inhibition [4] [%] | activity change, negative = inhibition [5] [%] |
| --- | --- | --- | --- | --- | --- |
| CC(C)C(=O)N1CCC2(CC1)OC(=O)N(Cc1ccccc1C#N)C2(C)c1ccccc1 (configuration not stated) | -7.55 | -11.2 | -22.9 | -21.1 | -10.3 |
| O=C(CSc1nc2c(c(=O)n1-c1ccccc1)SCC2)Nc1ccc(-c2ccccc2)cn1 | -16.7 | -9.92 | -4.04 | -27.4 | -8.46 |
| CCCOc1ccc(CN2C(=O)c3cc4occc4n3CC2(C)C(=O)NC2CCC(C)CC2)cc1 (configuration not stated) | -4.11 | 0.391 | -5.83 | -4.61 | -0.711 |
| COc1cccc(OC)c1OCCNCC1CSc2ccccc2O1 (configuration not stated) | -2.86 | 4.49 | -2.84 | -9.7 | -1.49 |
| Fc1ccc(C2Nc3c(Cl)cccc3C3C=CCC32)cc1 (configuration not stated) | -8.07 | 2.08 | -3.84 | -9.05 | -5.61 |
| COc1ccc(NC(=O)Cn2c(=O)oc3cc(S(=O)(=O)N4CCCC4)ccc32)c(OC)c1 | 11.9 | 2.34 | 12.3 | 7.58 | 7.26 |
| COc1ccc(C2Sc3ccccc3N(CCN(C)C)C(=O)C2OC(C)=O)cc1 (configuration not stated) | -5.78 | – | 7.74 | – | – |
| O=c1[nH]c2ccc(S(=O)(=O)Nc3ccc(F)c(F)c3)cc2[nH]1 | 2.54 | 0 | -3.27 | -2.72 | -10.4 |
| COc1ccc([C@H]2C[C@@H](O)[C@@H](O)[C@@H]2NC(=O)c2ccccn2)cc1 | -3.6 | 1.61 | 2.31 | -1.69 | 17.9 |
| CC(=O)Nc1c2n(c3ccccc13)CC(C)(C(=O)NC1CCCC1)N(Cc1ccc(Cl)cc1)C2=O (configuration not stated) | -12.9 | -0.223 | -2.6 | -5.54 | -0.525 |
| CCCN1C(=O)c2cc(C(=O)NCc3cccc(OC)c3)nn2CC1(C)C(=O)NC1CCCC1 (configuration not stated) | -2.63 | -0.127 | -2.78 | -4.58 | -3.65 |
| CC1OC(O[C@H]2[C@@H](O)C[C@@]3(C)C([C@H](O)C[C@]4(C)C3CC=C3C5CC(C)(C)CC[C@]5(C(=O)OC5OC(CO)C(O)C(O)C5OC5OCC(OC6OCC(OC7OCC(O)C(O)C7O)C(O)C6O)C(OC6OCC(O)(CO)C6O)C5O)CC[C@]34C)[C@]2(C)CO)C(O)C(O)C1O (some centres not stated) | 0.962 | 9.52 | 12.1 | -4.38 | 8.35 |
| CCNC1(C(N)=O)CCN(c2ncnc3c2nc(-c2ccccc2Cl)n3-c2ccc(Cl)cc2)CC1 | -7.34 | 12.9 | -3.12 | -34 | -6.29 |
| CCc1ccc(CN2C(=O)c3cc(-c4ccc(OC)cc4)nn3CC2(C)C(=O)NCc2ccccc2OC)cc1 (configuration not stated) | -6.4 | -0.828 | -6.99 | -9.86 | -4.41 |
| CC(C)=CCC[C@](C)(O[C@@H]1O[C@H](CO)[C@@H](O)[C@H](O)[C@H]1O)[C@H]1CC[C@]2(C)[C@@H]1[C@H](O)CC1[C@@]3(C)CC[C@H](O)C(C)(C)C3[C@@H](O[C@@H]3O[C@H](CO)[C@@H](O)[C@H](O)[C@H]3O[C@@H]3O[C@@H](C)[C@H](O)[C@@H](O)[C@H]3O)C[C@]12C (some centres not stated) | 1.98 | 1.42 | 11.1 | -13.8 | -5.51 |
